The BET-seq Pho4 binding data (Le et al. 2018)
This is one part of the list. The energies were worked out here from pooled read counts, against the library average; single values are noisy.

Biological target: T1, Pho4 (S. cerevisiae) (UniProt P07270)
T1 sequence: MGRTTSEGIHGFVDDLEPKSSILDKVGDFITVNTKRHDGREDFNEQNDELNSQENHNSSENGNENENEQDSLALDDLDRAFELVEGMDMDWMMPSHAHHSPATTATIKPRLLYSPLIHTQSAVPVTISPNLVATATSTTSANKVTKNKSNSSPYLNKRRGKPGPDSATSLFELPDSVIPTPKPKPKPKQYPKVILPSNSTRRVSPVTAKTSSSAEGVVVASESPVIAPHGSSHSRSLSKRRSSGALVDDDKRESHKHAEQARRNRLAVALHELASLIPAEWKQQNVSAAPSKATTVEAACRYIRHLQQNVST
Experiment: relative binding free energy (BET-seq); higher = weaker binding
Settings: reference: library average

Sequence | relative binding free energy [kcal/mol]
GAATTCACGTGGGGAA | 0.24
AGGTGCACGTGTTTGT | -0.03
GTGAACACGTGGGCTT | -0.06
TAAGACACGTGTTCGG | 0.14
GTCGCCACGTGTAGGG | -0.08
AGTGGCACGTGATAGT | 0.02
TTAGTCACGTGTGAGA | 0.03
TATACCACGTGTGGTA | 0.02
CGATTCACGTGTTGTT | 0.3
TGAGTCACGTGCAGAG | 0.13
GGGCACACGTGTTGTG | 0.15
TTAGTCACGTGGTGGG | 0.11
GAGTACACGTGTCGTG | 0.14
TGTAACACGTGTGCGG | -0.03
AAGGCCACGTGGGGAG | -0.2
AGGTTCACGTGTAGAT | 0.46
TAGAGCACGTGTAGTT | -0.07
GCTGTCACGTGTGTGA | 0
GTGGTCACGTGTGGAG | 0.26
GTGATCACGTGGGTGC | 0.07
GATAGCACGTGAAGTT | 0.39
CGTTACACGTGGGGTC | 0.01
TTCTTCACGTGGGTGC | 0.15

Sequence | relative binding free energy [kcal/mol]
TTTTACACGTGGCAGA | 0.08
CATGCCACGTGGGGTG | -0.3
GGTAGCACGTGGAGGT | -0.06
CTTAGCACGTGTTTGG | -0.03
TCGGACACGTGATTTG | 0.16
TGTGGCACGTGGATGT | 0
TATTACACGTGTGCTT | 0.14
TTAATCACGTGCGGTG | 0.02
AATTGCACGTGGTAGG | -0.04
TTGGGCACGTGCAGAG | -0.03
AGCATCACGTGTGAGT | 0.18
CAGTTCACGTGTGTTT | 0.2
CGGCCCACGTGGGGGT | -0.36
AGAGACACGTGATGTT | 0.07
TATTGCACGTGGAATT | 0.18
AGGACCACGTGTTGGG | -0.02
TTAGGCACGTGTGAGT | -0.01
GAGAGCACGTGGGGGG | -0.13
CGTGCCACGTGTTGGA | 0
TGGTACACGTGGTAGT | -0.05
AAGTGCACGTGTGTGC | -0.01
AGGAGCACGTGGAGCG | -0.18
GGAGACACGTGGGTAC | -0.05

Sequence | relative binding free energy [kcal/mol]
GGGTGCACGTGTGGAG | 0.06
GTGTGCACGTGTAGAA | 0.01
AGGCGCACGTGATGAT | 0.14
TGAGTCACGTGGGGGG | -0.05
GTCGTCACGTGTTAAT | 0.14
GCCGTCACGTGTGTTG | 0.17
ATGGACACGTGCAGTT | -0.11
GTGCTCACGTGAAGTG | 0.2
CTCGGCACGTGGGGCG | -0.23
CGTATCACGTGTAAAT | 0.26
GCAGTCACGTGTGTAT | 0.23
TATGACACGTGCGTAT | 0.05
GATGTCACGTGCGTGG | 0.08
GGACACACGTGGAGGT | 0
GTGAGCACGTGTGGTC | 0.08
GGTTCCACGTGATGGC | 0.33
TGATTCACGTGAAGGC | 0.51
ATTTGCACGTGGGCCG | -0.12
ATAGGCACGTGGTGTA | -0.3
CGGGGCACGTGGTACT | -0.18
TAGTCCACGTGGGTGA | -0.08
AAGTGCACGTGCATGG | -0.09
CAGGTCACGTGAAGGT | 0.33

Sequence | relative binding free energy [kcal/mol]
TTGATCACGTGTGCAT | 0.15
TGCTTCACGTGGAGGG | 0.26
CTGTGCACGTGGGAAG | -0.15
GATAACACGTGTAGAG | 0.2
CTGGGCACGTGGTGGT | -0.15
TGAATCACGTGAAGTT | 0.52
AATGACACGTGGGCTT | 0.03
TAGGGCACGTGGTACA | -0.32
ATTCTCACGTGGTTTT | 0.22
GTGGGCACGTGTTGCA | -0.01
GAGAACACGTGTTGTT | 0.04
TGAGGCACGTGTAGTC | 0.01
CGGGTCACGTGTCGGA | 0.16
TGCAGCACGTGTCTGT | -0.07
TCGGACACGTGGCGTG | -0.01
GTGAACACGTGGGTTA | 0
ATTATCACGTGGTTCG | 0.22
CGGTGCACGTGTTGTT | 0.01
GAGTCCACGTGGTGGT | 0.12
ATGGACACGTGATGGA | 0.04
TGATGCACGTGGATGG | -0.08
GTGTGCACGTGAATGG | 0.18
AGATTCACGTGGTGTA | 0.1

Sequence | relative binding free energy [kcal/mol]
TGTTACACGTGATCTT | 0.08
GTTTACACGTGAAAGT | 0.34
CTATACACGTGGGGAG | -0.12
GTGATCACGTGGTGCG | 0.14
GATCTCACGTGGGCGG | 0.14
CTTATCACGTGGGGTT | -0.02
TGTATCACGTGTCAGT | 0.17
TTCGTCACGTGTTTGG | 0.13
GAATTCACGTGTGGGT | 0.31
AGTGTCACGTGGTAAA | 0.06
AGGGGCACGTGTTGTA | -0.07
ATAAACACGTGATTTT | 0.13
TGGTGCACGTGAACAT | 0.14
ATTTGCACGTGTGCTT | -0.04
GTGTACACGTGCTGGT | 0.1
TTGTTCACGTGTTGCT | 0.22
ATAGTCACGTGCCGGT | 0.02
AGAGTCACGTGGTGGA | 0.14
ATTTTCACGTGTTGGC | 0.31
AAGGCCACGTGCGTGG | -0.09
AAGTTCACGTGTAGGT | 0.32
TGTTTCACGTGGTCGC | 0.18
CAAGTCACGTGGGGGT | -0.05
